Measured values reported in paper PMC8233286.
Changes are numbered by the printed parent chain. These are yes or no findings as the source states them, for the method shown. In cells and extracts the contact can be indirect. Some results given as binding are weak or reduced against the parent protein; the word gives no strength. Sequences can lack the tags named with a protein.

B1: myc-tagged human calnexin (CANX) (protein, UniProt P27824 21-592)
chain: HDGHDDDVIDIEDDLDDVIEEVEDSKPDTTAPPSSPKVTYKAPVPTGEVYFADSFDRGTLSGWILSKAKKDDTDDEIAKYDGKWEVEEMKESKLPGDKGLVLMSRAKHHAISAKLNKPFLFDTKPLIVQYEVNFQNGIECGGAYVKLLSKTPELNLDQFHDKTPYTIMFGPDKCGEDYKLHFIFRHKNPKTGIYEEKHAKRPDADLKTYFTDKKTHLYTLILNPDNSFEILVDQSVVNSGNLLNDMTPPVNPSREIEDPEDRKPEDWDERPKIPDPEAVKPDDWDEDAPAKIPDEEATKPEGWLDDEPEYVPDPDAEKPEDWDEDMDGEWEAPQIANPRCESAPGCGVWQRPVIDNPNYKGKWKPPMIDNPSYQGIWKPRKIPNPDFFEDLEPFRMTPFSAIGLELWSMTSDIFFDNFIICADRRIVDDWANDGWGLKKAADGAAEPGVVGQMIEAAEERPWLWVVYILTVALPVFLVILFCCSGKKQTSGMEYKKTDAPQPDVKEEEEEKEEEKDKGDEEEEGEEKLEEKQKSDAEEDGGTVSQEEEDRKPKAEEDEILNRSPRNRKPRRE
B2: myc-tagged human syntaxin 6 (STX6_myc) (protein, UniProt O43752 1-255)
chain: MSMEDPFFVVKGEVQKAVNTAQGLFQRWTELLQDPSTATREEIDWTTNELRNNLRSIEWDLEDLDETISIVEANPRKFNLDATELSIRKAFITSTRQVVRDMKDQMSTSSVQALAERKNRQALLGDSGSQNWSTGTTDKYGRLDRELQRANSHFIEEQQAQQQLIVEQQDEQLELVSGSIGVLKNMSQRIGGELEEQAVMLEDFSHELESTQSRLDNVMKKLAKVSHMTSDRRQWCAIAILFAVLLVVLILFLVL
B3: myc-tagged mouse SEC22a (SEC22a_myc) (protein, UniProt Q8BH47 1-307)
chain: MSMILSASVIRVRDGLPLSASTDYEQSTGMQECRKYFKMLSRKLAQFPDRCTLKTGRYNINFISSLGVSYMMLCSENYPNVLAFSFLDELQKEFITTYNMMKTNTAVRPYCFIEFDNFIQRTKQRYNNPRSLSTKINLSDMQMEIKLRPPYQIPMCELGSANGVTSAFSVDCKGAGKISSAHQRLEPATLSGIVAFILSLLCGALNLIRGFHAIESLLQSDGEDLNYIIAFFLGTAACLYQCYLLVYYTSWRNVKSFLTFGLICLCNMYLYELRNLWQLFFHVTVGAFVTLQIWLRQAQGKAPDHDV
B4: myc-tagged human syntaxin 10 (STX10_myc) (protein, UniProt O60499 1-249)
chain: MSLEDPFFVVRGEVQKAVNTARGLYQRWCELLQESAAVGREELDWTTNELRNGLRSIEWDLEDLEETIGIVEANPGKFKLPAGDLQERKVFVERMREAVQEMKDHMVSPTAVAFLERNNREILAGKPAAQKSPSDLLDASAVSATSRYIEEQQATQQLIMDEQDQQLEMVSGSIQVLKHMSGRVGEELDEQGIMLDAFAQEMDHTQSRMDGVLRKLAKVSHMTSDRRQWCAIAVLVGVLLLVLILLFSL

Columns and labels:
Assay in all cases: co-IP; HA-tagged iRhom construct as bait, anti-HA magnetic beads, lysate of stably expressing HEK293 cells additionally transfected with a myc-tagged protein; western blot with α-myc antibody
[1] = target: T1, murine wt_iRhom2 (wild-type) construct with 3xHA tag, in HEK293 cells (mouse) (UniProt Q80WQ6)
T1 sequence: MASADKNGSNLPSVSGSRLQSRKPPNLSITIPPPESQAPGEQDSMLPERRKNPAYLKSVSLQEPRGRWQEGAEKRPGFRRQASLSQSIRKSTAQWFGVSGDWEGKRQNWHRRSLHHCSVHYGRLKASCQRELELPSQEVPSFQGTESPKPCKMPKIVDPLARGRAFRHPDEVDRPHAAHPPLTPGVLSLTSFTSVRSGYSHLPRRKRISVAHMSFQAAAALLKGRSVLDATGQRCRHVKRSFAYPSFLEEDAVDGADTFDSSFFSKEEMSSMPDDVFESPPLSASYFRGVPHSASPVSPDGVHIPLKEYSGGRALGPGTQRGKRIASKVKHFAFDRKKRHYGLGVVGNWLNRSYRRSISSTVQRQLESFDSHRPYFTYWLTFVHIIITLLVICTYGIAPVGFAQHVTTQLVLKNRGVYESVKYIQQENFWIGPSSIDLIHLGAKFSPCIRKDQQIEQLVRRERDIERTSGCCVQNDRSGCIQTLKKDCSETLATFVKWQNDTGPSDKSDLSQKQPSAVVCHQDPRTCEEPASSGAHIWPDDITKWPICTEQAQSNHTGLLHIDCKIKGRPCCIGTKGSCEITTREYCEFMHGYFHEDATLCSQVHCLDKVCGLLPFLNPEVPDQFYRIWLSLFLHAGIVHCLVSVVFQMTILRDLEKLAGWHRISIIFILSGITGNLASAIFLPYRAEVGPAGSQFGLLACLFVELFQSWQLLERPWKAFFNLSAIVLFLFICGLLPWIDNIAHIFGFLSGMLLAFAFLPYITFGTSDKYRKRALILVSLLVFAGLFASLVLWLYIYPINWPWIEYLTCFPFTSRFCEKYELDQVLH

[2] = target: T2, miR2_W538S (murine iRhom2 with W538S in iCERES), in HEK293 cells (mouse) (UniProt Q80WQ6)
T2 sequence: T1 sequence with W538S

[3] = target: T3, miR2_L438P (murine iRhom2 with L438P in the first helix of the IRHD) (mouse) (UniProt Q80WQ6)
T3 sequence: T1 sequence with L438P

Row | Binder | binding [1] | binding [2] | binding [3]
1 | B1 | binds | binds | binds
2 | B2 | binds | no binding | 
3 | B3 | binds | binds | 
4 | B4 | binds | binds | 
